± gives the standard deviation of the averaged measurements. Some of the results follow.

The test relates to PfAP2-LT AP2 domain (GST-tagged). Kind of test: gcPBM binding intensity (ln(normalized median fluorescence intensity)); higher = stronger DNA binding. The procedure, abridged:
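The binding buffer was 1× PBS containing 1% milk, 0.2 mg/ml BSA, 0.5% salmon testes DNA and 0.03% Triton X-100. In it, GST-tagged P. falciparum DNA-binding domains expressed in E. coli were applied for 1 h to an Agilent 4 × 180k array of primer-extended double-stranded 36-bp intergenic genomic probes plus negative controls. Binding intensity, read with Alexa488 anti-GST antibody and a 488 nm scan, is the highest Masliner-normalised natural-log median intensity across replicate spots of either probe orientation.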
Take “TTCACATACAGAAACACACACATATTTATAAATTAA [CACACA_site7699]”: the “gcPBM binding intensity (ln)” value was 9.32 ± 0.33.

In the case of “AAAAGAAAATTAAATTAACACACATAAATATATATA [CACACA_site8482]”, the “gcPBM binding intensity (ln)” value came out at 8.84 ± 0.53.

In the case of “TTTTTAATTAACTTTTTATAAATAAATAAAAATATA [GTGCAC_negctrl_site334]”, the “gcPBM binding intensity (ln)” value came to 7.83 ± 0.38.

In the case of “ATTATTTAATTTTATTAAAAAAAAACAAATTAACAG [GTGCAC_negctrl_site152]”, the “gcPBM binding intensity (ln)” value came out at 8.19 ± 0.49.

On to “TAACATATTATATATACATGCATACGTGAACTAATC [TGCATGCA_site888]”, for which the “gcPBM binding intensity (ln)” value was 8.89 ± 0.44.

As for “GATATATTATTTGAATGTACATATTATATTTATATT [XGTACX_site907]”, the “gcPBM binding intensity (ln)” value turned out to be 8.78 ± 0.3.

Turning to “ATTGTATATGTATATGCACACAATATATGTACTTAT [CACACA_site2611]”, the “gcPBM binding intensity (ln)” value was 9.11 ± 0.35.

With “TTTTTTTAGTTAATTAAACACACAAAAAAAAAAATA [CACACA_site9301]”, the “gcPBM binding intensity (ln)” value stood at 8.32 ± 0.4.

As to “GTTAGAATTGTTAGGTGGTCAAAAAGGAGAAAAAAA [XGTACX_site2086]”, the “gcPBM binding intensity (ln)” value was determined as 8.56 ± 0.51.

In the case of “TTTATGCACGCGTGCACACACATATGAAAAAAGGTA [CACACA_site3315]”, the “gcPBM binding intensity (ln)” value was 9.45 ± 0.3.

Turning to “TATGTTTAAATATATTGTACGCACGTATGTTTTTAA [XGTACX_site1108]”, the “gcPBM binding intensity (ln)” value was 8.76 ± 0.4.

With “ACAAATAAATATATATGTACATATATTTTTTTATTT [XGTACX_site2989]”, the “gcPBM binding intensity (ln)” value was determined as 8.7 ± 0.38.

On to “TTTTATTTATATTATACACACAAGGAAAAAAAAAAA [CACACA_site7690]”, for which the “gcPBM binding intensity (ln)” value turned out to be 8.66 ± 0.34.

For the sequence “TATATATTAAAAATAGTGCAAAATAATATATATATA [GTGCAC_site9716]”, the “gcPBM binding intensity (ln)” value worked out at 8.99 ± 0.38.

Regarding “AATACCTTTTAATAATGTACAAACAAAAATTAGAGA [XGTACX_site6850]”, the “gcPBM binding intensity (ln)” value came to 8.67 ± 0.51.

In the case of “AAGGGGAGAAAAATAAACGAAATATATACATACATA [XGTACX_negctrl_site88]”, the “gcPBM binding intensity (ln)” value turned out to be 8.88 ± 0.52.

Consider “ATATATATATATATATGTACATATTCATCTTATTCT [XGTACX_site1537]”, for which the “gcPBM binding intensity (ln)” value turned out to be 9.83 ± 0.26.

As for “ATGTCTATATATTAAGGTACACATATATGCTATTCA [XGTACX_site6008]”, the “gcPBM binding intensity (ln)” value amounted to 8.96 ± 0.47.

In the case of “TTTTAGTTAATTCATGCATGTAAAGTTTTATTTATA [TGCATGCA_site252]”, the “gcPBM binding intensity (ln)” value turned out to be 8.57 ± 0.42.

Turning to “AAAAAAAAAAAAAAAGTACACACTTTTGCGTACATG [CACACA_site3097]”, the “gcPBM binding intensity (ln)” value amounted to 8.96 ± 0.33.

On to “AAAATATACATAAACACACACAAAACGTTTAAGAAA [CACACA_site1071]”, for which the “gcPBM binding intensity (ln)” value is 9.39 ± 0.35.

Consider “ATATTAATTTTTATTACACACTCTCAATTTTTATTT [CACACA_site58]”, for which the “gcPBM binding intensity (ln)” value was found to be 8.96 ± 0.36.

For the sequence “GTTTAACTGTTTTATACACACAATGTATCCAATAAA [CACACA_site5612]”, the “gcPBM binding intensity (ln)” value amounted to 8.94 ± 0.4.

In the case of “CTAGCAAATACATACACACACACACGGATACCTATA [CACACA_site7609]”, the “gcPBM binding intensity (ln)” value came to 9.9 ± 0.3.

On to “TATATAACTTTATTTTTCTTTACTTATTTTATTTTA [GTGCAC_negctrl_site66]”, for which the “gcPBM binding intensity (ln)” value turned out to be 8.57 ± 0.59.

Take “AAAGAAAAAAAAAAAAGTACATAAATATAAAAAGAA [XGTACX_site6753]”: the “gcPBM binding intensity (ln)” value amounted to 8.84 ± 0.59.

In the case of “TTTTTTAAAATATATATAATGAATTTTTTTTTTTTT [CACACA_negctrl_site1577]”, the “gcPBM binding intensity (ln)” value stood at 7.88 ± 0.58.

“ATATATATATATATATGTACATATTATTAATAATAT [XGTACX_site6667]”: the “gcPBM binding intensity (ln)” value amounted to 9.42 ± 0.071.

As to “TATTTATATTTATATACACACTATATAACTCAAACA [CACACA_site6611]”, the “gcPBM binding intensity (ln)” value came to 8.66 ± 0.54.

Regarding “AATTGTTCGATATATGCACACAGTTTTGTTATTTTT [CACACA_site1615]”, the “gcPBM binding intensity (ln)” value amounted to 9.25 ± 0.34.

Regarding “ATACATATTAACAAGGTGCAAATGGATTTCATAAAA [GTGCAC_site9775]”, the “gcPBM binding intensity (ln)” value was determined as 8.89 ± 0.51.

As to TTTTTTTTTTTGTGAGTGCACGTATGAAGAGAAAAA, the “gcPBM binding intensity (ln)” value is 8.29 ± 0.35.

“GTATAATATGAACACACACACACACCCAAAAAAAAA [CACACA_site5152]”: the “gcPBM binding intensity (ln)” value was 10.3 ± 0.45.

Turning to “TTATGGAACCCCATTCGTACATAAATATTTTATATA [XGTACX_site7112]”, the “gcPBM binding intensity (ln)” value came out at 8.49 ± 0.35.

On to “GATATGATTACCTTATGGTGTTTTTGATGGATAGTT [CACACA_negctrl_site1504]”, for which the “gcPBM binding intensity (ln)” value is 8.89 ± 0.37.

Regarding “TTTTTTATTTTAATGTATTATTTTTATGTAATATAT [GTGCAC_negctrl_site391]”, the “gcPBM binding intensity (ln)” value came out at 8.54 ± 0.59.

On to “TATAATAATAATGATAGTACGTATGAGTTCAAAAAA [XGTACX_site608]”, for which the “gcPBM binding intensity (ln)” value stood at 8.88 ± 0.47.

“TATATACAAATATGCTGTACAAAAAAAAAAAAAAAA [XGTACX_site4732]”: the “gcPBM binding intensity (ln)” value was 8.59 ± 0.47.

“CGGTATTTTTTAATTTGTACGCATATACAATAATTA [XGTACX_site8603]”: the “gcPBM binding intensity (ln)” value came out at 8.7 ± 0.38.

For the sequence “TTTTATTATTTATATACACACTTGCTGAAATGTTAT [CACACA_site5919]”, the “gcPBM binding intensity (ln)” value worked out at 8.93 ± 0.47.

On to “TTCTTTATTTTTTCTACACACATTATGTATTCAAAG [CACACA_site3527]”, for which the “gcPBM binding intensity (ln)” value is 9.09 ± 0.54.

As for “TGAAAGAACCTGATTACACACATAAGTTATAAATAT [CACACA_site6165]”, the “gcPBM binding intensity (ln)” value came out at 9.03 ± 0.4.

For “TGAAAGAATGTTAATAGTACACACAATTATTATATA [XGTACX_site7936]”, the “gcPBM binding intensity (ln)” value was determined as 8.89 ± 0.47.

Consider “ATTGATATTGTATAATGTACAGGAAAAAAAAAAAAA [XGTACX_site526]”, for which the “gcPBM binding intensity (ln)” value was determined as 8.64 ± 0.51.
